Measured values taken from PMC4336329 (PLoS ONE, 2015).
About 14,000 (4.5%) of roughly 310,000 compounds showed an effect of 50% or more. Effects have a minus sign here. The list shows a part of the results.

biological target: human ether-à-go-go-related gene (hERG) potassium channel (human, UniProt Q12809); assay: primary screen, population patch clamp on CHO cells stably expressing hERG
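Also: peak tail current of the secondary pulse compared with the same well before compound.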

Chain of human ether-à-go-go-related gene (hERG) potassium channel (Q12809 whole entry, looked up): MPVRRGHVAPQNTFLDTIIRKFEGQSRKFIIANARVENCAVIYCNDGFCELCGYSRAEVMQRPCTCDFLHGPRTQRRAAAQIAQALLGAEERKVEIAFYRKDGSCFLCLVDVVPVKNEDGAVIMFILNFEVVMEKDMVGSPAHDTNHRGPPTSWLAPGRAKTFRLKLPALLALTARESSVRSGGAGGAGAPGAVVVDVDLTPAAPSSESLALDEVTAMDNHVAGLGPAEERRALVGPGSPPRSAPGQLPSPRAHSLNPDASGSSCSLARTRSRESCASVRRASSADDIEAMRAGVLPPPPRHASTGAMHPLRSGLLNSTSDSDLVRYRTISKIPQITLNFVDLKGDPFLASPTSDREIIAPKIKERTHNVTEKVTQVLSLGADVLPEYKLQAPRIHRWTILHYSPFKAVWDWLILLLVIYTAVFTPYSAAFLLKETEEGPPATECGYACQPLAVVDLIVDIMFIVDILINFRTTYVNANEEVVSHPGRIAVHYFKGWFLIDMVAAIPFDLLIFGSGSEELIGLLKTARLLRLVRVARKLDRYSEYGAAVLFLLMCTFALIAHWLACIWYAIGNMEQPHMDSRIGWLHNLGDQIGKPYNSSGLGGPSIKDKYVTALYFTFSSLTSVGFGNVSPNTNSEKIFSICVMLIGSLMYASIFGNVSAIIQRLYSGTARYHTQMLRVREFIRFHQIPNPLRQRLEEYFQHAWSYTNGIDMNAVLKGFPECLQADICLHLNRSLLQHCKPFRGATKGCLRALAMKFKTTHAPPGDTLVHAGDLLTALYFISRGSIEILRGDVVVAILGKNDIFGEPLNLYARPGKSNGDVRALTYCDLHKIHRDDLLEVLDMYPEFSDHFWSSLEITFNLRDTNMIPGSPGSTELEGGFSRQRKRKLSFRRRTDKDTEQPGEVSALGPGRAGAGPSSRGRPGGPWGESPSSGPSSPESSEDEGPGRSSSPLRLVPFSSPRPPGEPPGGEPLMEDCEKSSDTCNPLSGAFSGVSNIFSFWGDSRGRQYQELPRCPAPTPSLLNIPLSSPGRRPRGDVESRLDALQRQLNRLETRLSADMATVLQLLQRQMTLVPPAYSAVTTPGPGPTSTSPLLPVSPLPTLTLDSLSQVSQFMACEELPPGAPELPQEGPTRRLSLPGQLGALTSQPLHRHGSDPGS

Structure (SMILES)	hERG current change (%, negative = inhibition) at 10uM [%]
O=C(NCC(=O)N(c1ccc(F)cc1)C(C(=O)NC1CCCC1)c1ccncc1)c1ccco1 (stereo not drawn)	10.8
CCn1cc([N+](=O)[O-])c(C(=O)Nc2cc(C)on2)n1	0.761
CCOC(=O)C(CCCCCCP(=O)(c1ccccc1)c1ccccc1)NC(C)=O (stereo not drawn)	-0.737
Cc1ccc(CSc2nnc(NC(=O)C3COc4ccccc4O3)s2)cc1 (stereo not drawn)	23.5
C1=C(c2ccccc2)Nc2ccccc2N=C1c1ccccc1	0.187
[O-]/C(=C(\C(=S)Nc1cccc2ccccc12)[n+]1ccccc1)c1ccc(Cl)s1	5.54
O=C(CSc1nccn1-c1ccccc1)c1ccc(Br)cc1	7.33
Cc1cc2oc3c(c(=O)c2cc1C)C(c1ccc(C(C)C)cc1)N(CCCN1CCOCC1)C3=O (stereo not drawn)	-10.5
CCc1ccc(N2CC(C(=O)N/N=C/c3ccccc3)CC2=O)cc1 (stereo not drawn)	-14.8
O=C(NCc1ccc2c(c1)OCO2)NC1CCCCC1	19.4
COc1cccc(C(=O)Nc2nc(-c3ccncc3)cs2)c1	6.29
COc1ccc(C2/C(=C(/O)c3ccc(C)cc3)C(=O)C(=O)N2c2ccccn2)cc1 (stereo not drawn)	15.1
Cc1c(NC(=O)COc2ncnc3c(Cl)cc(Cl)cc23)c(=O)n(-c2ccccc2)n1C	7.23
Cc1ccc(C(=O)N/N=C/c2ccc(-c3cccc(C(F)(F)F)c3)o2)cn1	1.62
CC(OC(=O)CNC(=O)c1cccc(F)c1)C(=O)NC1CCCCC1C (stereo not drawn)	8.98
CN(C)c1ccc(CNC(=O)CCS(=O)(=O)c2ccc3c(c2)n(C)c(=O)c(=O)n3C)cc1	1.99
COc1ccccc1N1CCN(S(=O)(=O)CCNC(=O)c2cccc(F)c2)CC1	-24.7
Cn1cccc1/C=C(/C#N)C(N)=S	3.79
Cn1ccnc1SCC(=O)Nc1ccc2c(c1)OC(F)(F)O2	6.66

Structure (SMILES)	hERG current change (%, negative = inhibition) at 10uM [%]
CCc1ccccc1N/C(=N\S(=O)(=O)c1ccccc1)C(F)(F)F	4.15
C=CCn1c(CC(=O)Nc2cccc(OC)c2)nnc1SCC(=O)NC1CCCCC1	-3.45
Clc1ccccc1CN1CCN(c2cccc3[nH]ccc23)CC1	3.09
CC(C)CC(C(=O)NC1CCCC1)N(Cc1ccc2c(c1)OCO2)C(=O)c1snc(C(N)=O)c1N (stereo not drawn)	-20.4
Cc1cc(NC(=O)CCCC(=O)NCc2ccccc2)no1	7.97
Cl.Oc1ccc2c3c1O[C@H]1c4[nH]c5ccccc5c4C[C@@]4(O)[C@@H](C2)N(CC2CC2)CC[C@]314	-63
Cl.Nc1nc(N2CCN(C/C=C/c3ccccc3)CC2)nc2ccccc12	-67.7
CC1(C)Cc2nc(-c3ccccc3)n3cnnc3c2CO1	2.47
Cc1ccc(-c2nc3ccccc3c(=O)n2-c2cccc(O)c2)cc1	13.9
Cc1cnc(NC(=O)CCNC(=O)c2ccccc2Cl)s1	5.74
COc1cc(OC)cc(C(=O)OCC(=O)N2CCCC2)c1	12.2
CC(=O)c1ccc(N2CCN(C(=S)Nc3ccccc3C(F)(F)F)CC2)cc1	18.9
Nc1nnnn1CC(=O)N/N=C/c1cccs1	19.6
COC(=O)c1ccc(-c2nc3ccccc3[nH]2)cc1	17.8
CCN1CCN(C(=O)CN(Cc2ccccc2)S(C)(=O)=O)CC1	0.141
O=C(CN1CCOCC1)N(c1ccccc1)c1ccc2ccccc2c1	-16.2
CC1(c2ccccc2)NC(=O)N(CC#N)C1=O (stereo not drawn)	11.7
CC(NC(=O)Cn1c(=O)[nH]c2ccsc2c1=O)C12CC3CC(CC(C3)C1)C2 (stereo not drawn)	0.121
COc1cc(CCC(=O)O)on1	18.4

Structure (SMILES)	hERG current change (%, negative = inhibition) at 10uM [%]
Cn1c(N)c(C(=O)COC(=O)C2(c3ccccc3F)CCCC2)c(=O)n(C)c1=O	-29.9
O=C(c1ccc(F)cc1)N(Cc1ccccc1)C1CCS(=O)(=O)C1 (stereo not drawn)	-1.55
Cc1cc(CN2CCC(n3nccc3NC(=O)c3ccccc3C)CC2)n[nH]1	-38
CC(C)NC(=O)C(=O)NC1CCCCCC1	-3.3
COc1cccc(NC(=S)NC2CC3CCCC(C2)N3CC(C)C)c1 (stereo not drawn)	-24.8
Cc1cccc2sc(NC(=O)CN3C(=O)c4ccccc4C3=O)nc12	11.3
CCCCCOC(=O)C1=C(C)NC(=O)NC1c1ccc2c(c1)OCO2 (stereo not drawn)	6.41
O=C(NCCNc1ccccc1[N+](=O)[O-])c1ccccc1F	4.11
Cc1cc2nn(-c3ccc(Cl)cc3)nc2cc1N	5.43
O=S(=O)(Cc1ccc(Cl)cc1)N1CCCCCC1	6.95
COc1ccc(NC(=O)COC(=O)COc2ccc(Br)cc2)cc1	41.8
CC(C)Oc1ccc(C(CC(=O)O)NC(=O)Cc2ccc(Cl)cc2)cc1 (stereo not drawn)	24.8
N#Cc1c(SCC(N)=O)nsc1SCc1ccccc1Cl	9.65
CCCCn1c(=O)c(F)cn(Cc2ccc(OC)c([N+](=O)[O-])c2)c1=O	-25.2
COC(=O)c1ccc(N2CCN(C)CC2)c(NC(=O)COc2ccccc2Cl)c1	12.7
CC(=O)NC(C(=O)c1ccccc1)N1CCCCC1 (stereo not drawn)	6.15
CC(=O)c1csc(-c2cccc(-c3nc4ccc(Cl)cn4c3NC3CCCCC3)c2)c1.O=C(O)C(F)(F)F	22.9
c1csc(C2C3=C(Nc4ncnn42)c2ccccc2OC3)c1 (stereo not drawn)	11.4
Cc1cc2nc(-c3ccc(NC(=O)c4cccnc4)cc3)oc2cc1C	12
